This is an account of results in the supplement of paper PMC11417369.

The other results are listed elsewhere or left out.

In the experiment the test system is PfSIP2 AP2 domain 1 (GST-tagged). Kind of experiment: gcPBM binding intensity (ln(normalized median fluorescence intensity)); higher = stronger DNA binding. In outline:
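Each value is the highest Masliner-normalised natural-log median intensity across replicate spots of either orientation of a probe. The probes were primer-extended double-stranded 36-bp intergenic genomic sequences on an Agilent 4 × 180k array, alongside negative controls, exposed for 1 h to GST-tagged P. falciparum DNA-binding domains expressed in E. coli. Bound protein was picked up with Alexa488 anti-GST antibody and scanned at 488 nm.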
In the case of “ACATACGAAAATTGGAAGGATAGATAAAAAGAAAAT [CACACA_negctrl_site51]”, the “gcPBM binding intensity (ln)” value was determined as 7.08. With “GTACAGATGTAGTATGCATGTAATTATATATAAATT [TGCATGCA_site292]”, the “gcPBM binding intensity (ln)” value is 7.23. For the sequence “ATATAAAAAAGAGGGAGTACTTGTAACAAAATAATA [XGTACX_site8679]”, the “gcPBM binding intensity (ln)” value was 7.2. Then “ACGTAGTAGGTATTATGTACATATTTATAAGTATAA [XGTACX_site7336]”, with 7.05; and “ACATGTTCATAATTTTGTACATATTTTTATGAACAT [XGTACX_site3976]”, with 7.12; and “GAATGTATTCATAAATGTACTTATAATATTATAATA [XGTACX_site3466]”, with 7.15.

Take “ATAACATACATAACAACACACAATATTTATATGTAT [CACACA_site210]”: the “gcPBM binding intensity (ln)” value was 7.12.

For the sequence “ATAAATGAAGATAAATTAAAAAAAAAAAAAAAAAAA [CACACA_negctrl_site992]”, the “gcPBM binding intensity (ln)” value came to 6.94.

Regarding “AATACATAAATATTTTGTACATATTATATAAAATAT [XGTACX_site1627]”, the “gcPBM binding intensity (ln)” value came out at 6.98. The same measure for “CGACTTTTAAAATATACACACATATATATATATATA [CACACA_site825]”: 9.39. The same measure for “ATGAAAAAAAAAAAAAAAAAAAAAAAAAAAAAAAAA [CACACA_negctrl_site1405]”: 6.99.

For the sequence “CTTGTACCTAGAAATACACACAATTATATAACTTAT [CACACA_site2838]”, the “gcPBM binding intensity (ln)” value turned out to be 7.2. Then “TATAAGAAAATAATGTGTACTAAATAATAAATGCAT [XGTACX_site1204]”, with 7.17; and “CCACATGAGATGATTACACACATATAAATATTTACA [CACACA_site6222]”, with 7.19; and “ATATATATTTAATTTACACACAAAAAAAATTGTTGG [CACACA_site961]”, with 7.15. Then “ACTTTTTAATAATAATAATTATATATATATATATAT [TGCATGCA_negctrl_site459]”, with 9.29; and “TCCATTCTATTTTTTACACACGTATGTAAATATTAT [CACACA_site2686]”, with 7.14; and “TTAAATACTTTTCGAAGTACATTATATATATAATAT [XGTACX_site7530]”, with 6.99. Then “CGCAACACTATTTGGGTGCTCTTCAAAAAAAAAAAA [GTGCAC_site9598]”, with 8.35. Regarding “ACGAATTAAATGGATTAATATATATATGTATATTTA [CACACA_negctrl_site1512]”, the “gcPBM binding intensity (ln)” value came to 6.81. The same measure for “AGAATATATATAATAGTGCAATGTACAATGAACAAA [GTGCAC_site9577]”: 8.01. For “ATTTGCTTTTATTTTACACACTTGCTCCTGTTGTAC [CACACA_site1088]”, the “gcPBM binding intensity (ln)” value was determined as 7.27. The same measure for “AAAAAAAAATATATTGCACACCTCTCAATAAAAAAA [CACACA_site172]”: 7.19; for “CAGACCTCTTTGTCATGTACATAAAAAAATAAAGAA [XGTACX_site7887]”: 7.44. Then “TATAAACAGACGAAAACACACATATGTAAATATATA [CACACA_site4428]”, with 6.96; and “TACAAAAAGTTATACACACACGTACCTATAAATAGA [CACACA_site6571]”, with 6.99.

For the sequence “ATAAAAATAATATCATGTACATATGTGTATTGTATT [XGTACX_site1768]”, the “gcPBM binding intensity (ln)” value came out at 7.1. Then “AAATGTTGAAAAATATGTACATATTATATATATTAT [XGTACX_site1165]”, with 7.1; and “TAAGAAAGACAAAAAAAATGAAAAGAAAAAAAATGA [CACACA_negctrl_site1469]”, with 6.53. As to “ATTTAGAAAAAATATACACACAGCCTAAACATGCAT [CACACA_site4067]”, the “gcPBM binding intensity (ln)” value came out at 6.87. Then “AATATAAGCAAATACACACACACATATATATATATA [CACACA_site3805]”, with 9.05; and “TATTTATTTGTTTAAGGTACAGAACAAATTTTTATT [XGTACX_site7414]”, with 6.99. The same measure for “AAATGTTCTTAAAAATGAATAATATATATATATATA [CACACA_negctrl_site796]”: 9.19; for “ATATTTATTATTATATGTACGTAACATCTTTATAAA [XGTACX_site7016]”: 7.19. The same measure for “CATAAATACATACATACACACATATATATATATATA [CACACA_site2106]”: 9.58; for “TTATCCTATACAAGGGAAAAATAAAATAAAATAAAT [TGCATGCA_negctrl_site272]”: 6.91. As for “TAAAAAATATTATATACACACAGTATAAAAAAAAAT [CACACA_site4012]”, the “gcPBM binding intensity (ln)” value came out at 6.96. The same measure for ATTGATTATTTTCTAGTGCATAAAATAATTTTTTTT: 9.31. Consider “AGTGTCATATAAAATTGTACTTTTTTTTTTTTCTTT [XGTACX_site5651]”, for which the “gcPBM binding intensity (ln)” value was found to be 6.76. Then “ATATACATATTATAATGTACATATTTTAATAACCTT [XGTACX_site7617]”, with 7.06; and “AATATAAATAAAAACACACACAATGGTACAGATATA [CACACA_site5930]”, with 7.16; and “AATTTAAATTAGAATTGTACTAGAAAAGGAATATAT [XGTACX_site6162]”, with 7.24. The same measure for “AATTATATAATCTTATAACATAATATAATAACATTT [CACACA_negctrl_site187]”: 6.76. Regarding “CATACATACGGACACACACACATATATATATATATA [CACACA_site5598]”, the “gcPBM binding intensity (ln)” value stood at 9.3. The same measure for “AAAAAAGAAAAAAGGACACACATAAATATACTCACG [CACACA_site2904]”: 6.85; for “ATAATGTTTCTTTCAACACACAAAAAATGAACACAT [CACACA_site1552]”: 7.22; for “AAAAAAAAAAAATAGACCTCCTAAGCAAAAGAAAAA [GTGCAC_negctrl_site634]”: 6.77. With “TATATAAGCGCATGCACACGCAAAGGTATATAAATA [CACACA_site622]”, the “gcPBM binding intensity (ln)” value came out at 7.12.

“TAATGACTGAAAAATTGTACATATGTATATATGTAT [XGTACX_site2415]”: the “gcPBM binding intensity (ln)” value is 7.05. Turning to “ATTCTATTATAATATTCACACACTAACGTAAATCAT [CACACA_site2750]”, the “gcPBM binding intensity (ln)” value came to 7.21. The same measure for “TATACATACATACATACACACACACCGATATATATA [CACACA_site7896]”: 7.52; for “ATAATTTTCCATATTTGTACATATTTTTTTCCCTTG [XGTACX_site8146]”: 6.95; for “TTTTCAATTAATAATACACACATGTATTTATTATTA [CACACA_site5774]”: 6.77. Then “AATTATATACATAAGTGTACATAATATATAAACATA [XGTACX_site793]”, with 6.88; and “TGTTGTAAATTAAAGACATGCACGTGAGAAAATATA [TGCATGCA_site285]”, with 8.71; and “TTTTCTATGCTAAACACACTCATTGTTACAAGTTTT [CACACA_site5531]”, with 7.02. Then “TATATATATTTTATATGTACGTATGGAACAATATGA [XGTACX_site8167]”, with 7.38; and “TTATTTATTTTTTATACACACAATTATCATTTTAAG [CACACA_site22]”, with 7.09; and “TATACTAAGAAGTATTTACACACCAACAAGGCGAAA [CACACA_site8963]”, with 6.68. For the sequence “TAAGTTTATTGAAATTGTACAAACATAAATGTAAAA [XGTACX_site162]”, the “gcPBM binding intensity (ln)” value was found to be 6.93.

For “TTATATTTTTTTTTTTCACACACATTTATATTGTAT [CACACA_site9025]”, the “gcPBM binding intensity (ln)” value came to 6.83. The same measure for “AAATTAAGTATATATTGTACACATAATATGATTGTA [XGTACX_site3083]”: 6.9; for “TTATTTTCATATAGGTGTACATAAAAATATTCTTAT [XGTACX_site8861]”: 7.26. The same measure for “TATCATAAAAAATATACACACAAAGGATATATATAT [CACACA_site1571]”: 8.52; for “ATGTTCATTATATGCACACATATATATAAATGTAAT [CACACA_site2908]”: 7.31; for “TTAATTAGAAATCATACACACATATAAATAAATATA [CACACA_site6225]”: 6.7. Then “TATTTGTTTGTTCGGGTGCTTACATATATTCTTATA [GTGCAC_site9972]”, with 8.25; and “TGTGCCTATAAATTAACACACAGAAATATATAGAGA [CACACA_site818]”, with 7.04. For the sequence “TTATTCTGACAGAATTGTACTAATGTCTTTAAAAAA [XGTACX_site1256]”, the “gcPBM binding intensity (ln)” value was determined as 6.7.

As for “GAGAAATGGGGACACACACACATATTATATATATAT [CACACA_site4943]”, the “gcPBM binding intensity (ln)” value amounted to 9.04. For “TATATATATCTGTACACACACACATATAAATAAATA [CACACA_site4405]”, the “gcPBM binding intensity (ln)” value worked out at 7.59. The same measure for “AAGCACAAAAAATACACACACAAAAAATAAAAAAAG [CACACA_site1840]”: 7.06. The same measure for “TATATGCATAATAACTGTACACAAATTGGGGTTGAT [XGTACX_site459]”: 7.28. Then “ATATAAATATATGTATGTACGCATGTATGTATCTAT [XGTACX_site3290]”, with 7.16; and “ATGTATGTTTGTTATGCACACAAATGCATCTTATTT [CACACA_site8861]”, with 9.58. Turning to “ATAATGAACAATATTATATATAAAATATAATTTATA [GTGCAC_negctrl_site564]”, the “gcPBM binding intensity (ln)” value amounted to 6.72. Then “ATTATGTATACATAAACACACATATATATAAAAAAA [CACACA_site262]”, with 7.03.

Take “ATTATATATATGTGCACACAAAAGATATATATATAT [CACACA_site5205]”: the “gcPBM binding intensity (ln)” value was 9.44.

As for “AAATAATTTACTTAATGTACATATATATATATATAT [XGTACX_site8594]”, the “gcPBM binding intensity (ln)” value is 9.59. Consider “ATATTTATTTGTTAGTGTACATACATATATATATAT [XGTACX_site1347]”, for which the “gcPBM binding intensity (ln)” value is 9.24. The same measure for “TTTTAATTTATTTATGCACACATATATAATTACACA [CACACA_site8126]”: 7.52. Then “AAAAATAAACAATATATAGTTATATATATATATATA [TGCATGCA_negctrl_site82]”, with 9.71; and “TGTTTAAAAATAATTTGTACATATATTTTATTTCAT [XGTACX_site1272]”, with 6.92; and “ATAAAGAAATAAAGTTGTACATTATATATATATATA [XGTACX_site7729]”, with 9.2.

On to “AATAATTTTTTAAACACACACACATATATATATATA [CACACA_site95]”, for which the “gcPBM binding intensity (ln)” value was 9.29.

“AATACATACGGACACACACACACATATATATATATA [CACACA_site5884]”: the “gcPBM binding intensity (ln)” value was 9.59. Consider “TCTTTTGTTTAACCTACATGCAGAATATAAGTCTTC [TGCATGCA_site99]”, for which the “gcPBM binding intensity (ln)” value is 7.43. Then “ATTCATTATTCACCTTGTACACAAATGATTATCGTA [XGTACX_site455]”, with 7.22.
